# Measurements from PubChem BioAssay AID2675 (National Center for Advancing Translational Sciences (NCATS), 2010).
# The campaign covered roughly 280,000 compounds. About 100 (0.036%) were called active. The inconclusive results got no clear call from the source; some entries with a clear call stand among them for comparison. The call rests on the fitted dose curve; in most records, active means well fitted inhibition curve with a large enough effect in the signal ratio, with a control signal flat (not every such curve was filed as active); inconclusive means small, poorly fitted or top-dose-only effect, or effect the other way, or a change in a side signal; inactive means no such curve, though single readings can be large or run the other way; the % refers to the signal ratio. Where the call is inconclusive, the potency comes from a doubtful curve fit. “Side channel” marks fits to a control or component signal instead of the main read-out.
# Target: Muscleblind-like protein 1 (Homo sapiens) (UniProt Q9NR56)
# Assay: qHTS Assay for Inhibitors of MBNL1-poly(CUG) RNA binding
# Settings: TR-FRET MBNL1-His/biotin-(CUG)12 binding, 665/545 ratio; activity change, negative = inhibition: at 57.5 µM (top of the series)
# Summary of the method: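 His-tagged MBNL1 binding to biotinylated (CUG)12 RNA was measured by TR-FRET using terbium anti-His antibody (0.055 ng/ul final) and streptavidin-XL665 (5 nM final). Compounds were titrated 92 nM to 58 uM; 60 min at room temperature.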
# On the % scale 0 is the no-effect control and ±100 the full control effect; potency means the concentration at half of the fitted maximal effect; tags describe the fitted curve by direction and shape or compound fluorescence and quenching.
# UniProt Q9NR56, sequence (Q9NR56 whole entry, looked up): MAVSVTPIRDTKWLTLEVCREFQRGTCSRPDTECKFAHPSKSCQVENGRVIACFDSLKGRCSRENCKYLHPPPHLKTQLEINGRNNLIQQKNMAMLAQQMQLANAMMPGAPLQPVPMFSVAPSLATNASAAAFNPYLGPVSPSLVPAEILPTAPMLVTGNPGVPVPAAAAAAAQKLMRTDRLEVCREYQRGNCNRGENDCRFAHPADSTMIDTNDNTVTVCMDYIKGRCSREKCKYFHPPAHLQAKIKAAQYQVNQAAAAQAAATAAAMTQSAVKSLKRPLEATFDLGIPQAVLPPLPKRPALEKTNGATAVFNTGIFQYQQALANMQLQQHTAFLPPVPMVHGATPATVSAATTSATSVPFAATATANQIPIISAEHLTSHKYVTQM
SMILES,"activity change, negative = inhibition",Potency
Cc1ccc(S(=O)(=O)NC2OC(=O)C(Cl)=C2Cl)cc1 (centres undefined),inactive: -7.09%,
CC12CCC(C(=O)Nc3ccncc3)(CC1O)C2(C)C (centres undefined),inactive: 6.37%,
O=C(CCN1C(=O)COc2ccccc21)NCCCN1CCCC1,inactive: 3.25%,
CN(CCO)c1ccc([N+](=O)[O-])cc1C(=O)O,,"inconclusive: 17.8 µM [quencher, side channel, single point]"
COc1cc(/C=C/c2ccc3cccc([N+](=O)[O-])c3n2)ccc1OCC(=O)O,,"inconclusive: 15.8 µM [quencher, partial curve]"
O=C(NCC1CCCO1)c1cc([N+](=O)[O-])ccc1Cl (centres undefined),,"inconclusive: 25.1 µM [quencher, side channel, partial curve]"
O=[N+]([O-])c1ccc(N(CC2CO2)S(=O)(=O)c2ccccc2)cc1 (centres undefined),,"inconclusive: 17.8 µM [quencher, side channel, single point]"
CN(C)/C=C/C(=O)c1cnc(-c2cccc(Cl)c2)s1,,"inconclusive: 20 µM [quencher, side channel, partial curve]"
CC1CN(c2ccc([N+](=O)[O-])c(NCCOc3ccccc3)c2)CC(C)N1 (centres undefined),,"inconclusive: 15.8 µM [quencher, side channel, partial curve]"
Nc1[nH]c(=O)[nH]c(=O)c1N=Nc1ccc(C(=O)O)cc1,,"inconclusive: 6.31 µM [quencher, side channel, partial curve]"
CCCS(=O)(=O)c1ccc(COC(=O)Cc2ccc([N+](=O)[O-])cc2)cc1,,"inconclusive: 20 µM [quencher, partial curve]"
COc1ccc(C2=NS(=O)(=O)N(C)C(C(=O)Nc3ccc(C(C)=O)cc3)=C2)cc1OC,,"inconclusive: 14.1 µM [quencher, side channel, partial curve]"
Cc1ccc(C(=O)N2CCN(c3ccc([N+](=O)[O-])cc3)CC2)o1,,"inconclusive: 15.8 µM [quencher, partial curve]"
CCCCCCN1C=CC=C/C1=C/C=C(C#N)C#N,inactive: 16.9% [at 11.5 µM],
CCOc1ccccc1NC(=O)c1nc(S(=O)(=O)Cc2cccc(C)c2)ncc1Cl,inactive: -1.39%,
Cc1ccc([N+](=O)[O-])c(OCC(O)CNC(C)(C)C)c1 (centres undefined),,"inconclusive: 39.8 µM [quencher, side channel, single point]"
CN(C(=O)C1CCN(S(=O)(=O)c2cccc3nonc23)CC1)C1CCCCC1,,"inconclusive: 11.2 µM [quencher, side channel, partial curve]"
CC(C)OC(=S)N/C(=N\S(=O)(=O)c1ccccc1)c1ccccc1,,"inconclusive: 0.141 µM [quencher, side channel, full curve, poor fit]"
O=[N+]([O-])c1ccc(-c2ccn[nH]2)o1,,"inconclusive: 11.2 µM [quencher, side channel, partial curve]"
CN(C)CCNC(=O)/C(=C/c1ccc(-c2ccc(Cl)cc2)o1)NC(=O)c1ccccc1,,"inconclusive: 20 µM [quencher, side channel, single point]"

SMILES,"activity change, negative = inhibition",Potency
CCOC(=O)c1[nH]cnc1C(=O)Nc1ccc(Cl)cc1,inactive: 14.8%,
CCc1ccc(/C=C2\Oc3c(ccc(O)c3CN3CCN(C)CC3)C2=O)cc1,,"inconclusive: 20 µM [quencher, side channel, partial curve]"
NC(=O)c1ccc(Nc2ccc([N+](=O)[O-])cc2[N+](=O)[O-])cc1,,"inconclusive: 7.94 µM [quencher, side channel, partial curve]"
COc1ccc(/C=N/OC/C(O)=C(\C#N)c2nc3ccccc3[nH]2)cc1,inactive: 2.85%,
Cc1ccc(C(=O)N/N=C/c2sc(=O)n(Cc3cccc(C(=O)O)c3)c2Cl)cc1,,"inconclusive: 11.2 µM [quencher, side channel, partial curve]"
NS(=O)(=O)c1ccc(N=Nc2c(=O)[nH]n3c(=O)c4c([nH]c23)CCCC4)cc1,,"inconclusive: 3.98 µM [quencher, side channel, partial curve]"
O=C(Nc1ccc(Cl)c([N+](=O)[O-])c1)C(NCCCO)c1ccccc1 (centres undefined),,"inconclusive: 28.2 µM [quencher, side channel, single point]"
Cc1ccc(NC(=O)Cn2cc(S(=O)(=O)c3ccccc3)c(=O)c3cc(F)ccc32)cc1,,"inconclusive: 20 µM [fluorescent, side channel, partial curve]"
CCOC(=O)C(=O)C1=CN(Cc2ccccc2)C=C(C#N)C1,,"inconclusive: 20 µM [quencher, side channel, partial curve]"
Cc1ccc2[nH]c(=O)c(C(c3nnnn3C3CCCC3)N3CCCc4ccccc43)cc2c1 (centres undefined),,"inconclusive: 8.91 µM [quencher, side channel, full curve]"
CCCCSCCCNC(=O)c1ccc(CS(=O)(=O)c2ccc(OC)cc2)o1,inactive: 0.795%,
COCCNC(=O)CN(C(=O)CCC(=O)Nc1ccccn1)c1ccc(C)c(C)c1,inactive: -4.6%,
Cc1ccc(NC(=O)c2ccco2)c(NC(=O)CN2C(=O)c3ccccc3C2=O)c1,,"inconclusive: 8.91 µM [quencher, side channel, single point]"
O=C(c1ccccc1)c1cc([N+](=O)[O-])ccc1N1CCCC1,,"inconclusive: 7.08 µM [quencher, side channel, partial curve]"
CCCC1=[N+](CC(=O)c2ccccc2)CCn2cccc21,inactive: 3.59%,
COc1cc(/C=C(/NC(=O)c2ccccc2)C(=O)Nc2ccc(O)cc2)c([N+](=O)[O-])cc1OC,,"inconclusive: 12.6 µM [quencher, side channel, partial curve]"
Cc1nc(C)n(C(C)CC(=O)O)n1 (centres undefined),inactive: -1.5%,
COc1ccc(C(=O)NCC(=O)N/N=C/c2ccc([N+](=O)[O-])s2)cc1OC,,"inconclusive: 12.6 µM [quencher, side channel, partial curve]"
COc1ccc(CCN2CC(C(=O)N(C)Cc3ccc4nsnc4c3)CCC2=O)cc1 (centres undefined),,"inconclusive: 15.8 µM [quencher, partial curve]"
O=C(O/N=C/c1ccc2c(c1)OCO2)c1ccccc1Cl,,"inconclusive: 14.1 µM [quencher, side channel, partial curve]"

SMILES,"activity change, negative = inhibition",Potency
Cc1ccc(-c2ccc(CCC(=O)O)n2NC(=O)c2ccc([N+](=O)[O-])cc2)cc1,,"inconclusive: 10 µM [quencher, side channel, partial curve]"
COc1ccc(C(=O)Nc2ccc(S(=O)(=O)Nc3cc(C)nc(C)n3)cc2)cc1OC,,"inconclusive: 158 µM [inhibitor, single point]"
COc1ccc(C(C)=O)cc1COC(=O)CNC(=O)c1ccc(Cl)cc1,,"inconclusive: 0.1 µM [fluorescent, side channel, partial curve, poor fit]"
COc1ccc(CN2CCN(Cc3cccc4nonc34)CC2CCO)c(C)c1C (centres undefined),,"inconclusive: 14.1 µM [quencher, side channel, partial curve]"
O=C(c1ccco1)N1CCN(c2ccc([N+](=O)[O-])cc2Cl)CC1,,"inconclusive: 15.8 µM [quencher, side channel, partial curve]"
Cn1cnnc1SCC(=O)N1N=C2/C(=C/c3ccco3)CCCC2C1c1ccco1 (centres undefined),inactive: 7.2%,
COc1ccc(N2CCN(Cc3cc(OC)c(O)c([N+](=O)[O-])c3)CC2)cc1,,"inconclusive: 2 µM [quencher, side channel, full curve]"
O=C(c1cccs1)N1C(=O)c2cccc3cccc1c23,,"inconclusive: 39.8 µM [fluorescent, side channel, single point]"
CC(C)NCC(O)c1ccc(O)c(O)c1 (centres undefined),inactive: -5.54%,
CCOC(=O)N1CCN(S(=O)(=O)c2ccc([N+](=O)[O-])cc2)CC1,,"inconclusive: 17.8 µM [quencher, side channel, partial curve]"
O=C(NCc1ccccn1)C1CCC(CNS(=O)(=O)c2cccc3nsnc23)CC1 (centres undefined),,"inconclusive: 14.1 µM [quencher, side channel, partial curve]"
O=C(COC(=O)c1cccnc1Cl)c1ccc2c(c1)OCCO2,inactive: -1.63%,
COc1ccc(C(=O)NCCNc2nc3ccc(C)cc3cc2C#N)cc1,,"inconclusive: 17.8 µM [quencher, side channel, partial curve]"
CC(C)c1ccc2[nH]c(O)c(N=NC(=O)c3cccc(S(=O)(=O)N4CCCCC4)c3)c2c1,,"inconclusive: 0.316 µM [quencher, side channel, full curve]"
Cc1cc(=O)oc2cc(OCC(=O)N/N=C/c3cc([N+](=O)[O-])ccc3O)ccc12,,"inconclusive: 0.112 µM [fluorescent, side channel, full curve, poor fit]"
O=C(COc1ccc([N+](=O)[O-])cc1Cl)NCC1CCCO1 (centres undefined),,"inconclusive: 20 µM [quencher, side channel, partial curve]"
CCCOc1ccc(N2C(=O)CC(NCc3ccc(S(N)(=O)=O)cc3)C2=O)cc1 (centres undefined),inactive: 3.26%,
Cc1ccc(S(=O)(=O)CC(=O)Nc2ncc([N+](=O)[O-])s2)cc1,,"inconclusive: 17.8 µM [quencher, side channel, partial curve]"
CC(=O)Nc1ccc(S(=O)(=O)Nc2ccc(C)c([N+](=O)[O-])c2)cc1,,"inconclusive: 17.8 µM [quencher, side channel, partial curve]"
